{"source": "paper PMC4186968", "about": "“Molecular Basis for Coordinating Transcription Termination with Noncoding RNA Degradation” (Molecular Cell, 2014)", "binders": {"B1": {"name": "recombinant Rrp6-Halo, Q12149 1-733 (protein)", "chain": "MTSENPDVLLSRVINVVRAASSLASQDVDFYKNLDRGFSKDLKSKADKLADMANEIILSIDEHHESFELKEEDISDLWNNFGNIMDNLLEMSDHSLDKLNCAINSKSRGSDLQYLGEFSGKNFSPTKRVEKPQLKFKSPIDNSESHPFIPLLKEKPNALKPLSESLRLVDDDENNPSHYPHPYEYEIDHQEYSPEILQIREEIPSKSWDDSVPIWVDTSTELESMLEDLKNTKEIAVDLEHHDYRSYYGIVCLMQISTRERDYLVDTLKLRENLHILNEVFTNPSIVKVFHGAFMDIIWLQRDLGLYVVGLFDTYHASKAIGLPRHSLAYLLENFANFKTSKKYQLADWRIRPLSKPMTAYARADTHFLLNIYDQLRNKLIESNKLAGVLYESRNVAKRRFEYSKYRPLTPSSEVYSPIEKESPWKILMYQYNIPPEREVLVRELYQWRDLIARRDDESPRFVMPNQLLAALVAYTPTDVIGVVSLTNGVTEHVRQNAKLLANLIRDALRNIKNTNEEATPIPSSETKADGILLETISVPQIRDVMERFSVLCNSNISKSRAKPVTNSSILLGKILPREEHDIAYSKDGLPNKVKTEDIRIRAQNFKSALANLEDIIFEIEKPLVVPVKLEEIKTVDPASAPNHSPEIDNLDDLVVLKKKNIQKKQPAKEKGVTEKDAVDYSKIPNILSNKPGQNNRQQKKRRFDPSSSDSNGPRAAKKRRPAAKGKNLSFKR"}, "B2": {"name": "Nab3p (protein, UniProt P38996 1-802)", "chain": "MSDENHNSDVQDIPSPELSVDSNSNENELMNNSSADDGIEFDAPEEEREAEREEENEEQHELEDVNDEEEEDKEEKGEENGEVINTEEEEEEEHQQKGGNDDDDDDNEEEEEEEEDDDDDDDDDDDDEEEEEEEEEEGNDNSSVGSDSAAEDGEDEEDKKDKTKDKEVELRRETLEKEQKDVDEAIKKITREENDNTHFPTNMENVNYDLLQKQVKYIMDSNMLNLPQFQHLPQEEKMSAILAMLNSNSDTALSVPPHDSTISTTASASATSGARSNDQRKPPLSDAQRRMRFPRADLSKPITEEEHDRYAAYLHGENKITEMHNIPPKSRLFIGNLPLKNVSKEDLFRIFSPYGHIMQINIKNAFGFIQFDNPQSVRDAIECESQEMNFGKKLILEVSSSNARPQFDHGDHGTNSSSTFISSAKRPFQTESGDMYNDDNGAGYKKSRRHTVSCNIFVKRTADRTYAIEVFNRFRDGTGLETDMIFLKPRMELGKLINDAAYNGVWGVVLVNKTHNVDVQTFYKGSQGETKFDEYISISADDAVAIFNNIKNNRNNSRPTDYRAMSHQQNIYGAPPLPVPNGPAVGPPPQTNYYQGYSMPPPQQQQQQPYGNYGMPPPSHDQGYGSQPPIPMNQSYGRYQTSIPPPPPQQQIPQGYGRYQAGPPPQPPSQTPMDQQQLLSAIQNLPPNVVSNLLSMAQQQQQQPHAQQQLVGLIQSMQGQAPQQQQQQLGGYSSMNSSSPPPMSTNYNGQNISAKPSAPPMSHQPPPPQQQQQQQQQQQQQQQQPAGNNVQSLLDSLAKLQK"}, "B3": {"name": "Dis3p (protein, UniProt Q08162 1-1001)", "chain": "MSVPAIAPRRKRLADGLSVTQKVFVRSRNGGATKIVREHYLRSDIPCLSRSCTKCPQIVVPDAQNELPKFILSDSPLELSAPIGKHYVVLDTNVVLQAIDLLENPNCFFDVIVPQIVLDEVRNKSYPVYTRLRTLCRDSDDHKRFIVFHNEFSEHTFVERLPNETINDRNDRAIRKTCQWYSEHLKPYDINVVLVTNDRLNREAATKEVESNIITKSLVQYIELLPNADDIRDSIPQMDSFDKDLERDTFSDFTFPEYYSTARVMGGLKNGVLYQGNIQISEYNFLEGSVSLPRFSKPVLIVGQKNLNRAFNGDQVIVELLPQSEWKAPSSIVLDSEHFDVNDNPDIEAGDDDDNNESSSNTTVISDKQRRLLAKDAMIAQRSKKIQPTAKVVYIQRRSWRQYVGQLAPSSVDPQSSSTQNVFVILMDKCLPKVRIRTRRAAELLDKRIVISIDSWPTTHKYPLGHFVRDLGTIESAQAETEALLLEHDVEYRPFSKKVLECLPAEGHDWKAPTKLDDPEAVSKDPLLTKRKDLRDKLICSIDPPGCVDIDDALHAKKLPNGNWEVGVHIADVTHFVKPGTALDAEGAARGTSVYLVDKRIDMLPMLLGTDLCSLKPYVDRFAFSVIWELDDSANIVNVNFMKSVIRSREAFSYEQAQLRIDDKTQNDELTMGMRALLKLSVKLKQKRLEAGALNLASPEVKVHMDSETSDPNEVEIKKLLATNSLVEEFMLLANISVARKIYDAFPQTAMLRRHAAPPSTNFEILNEMLNTRKNMSISLESSKALADSLDRCVDPEDPYFNTLVRIMSTRCMMAAQYFYSGAYSYPDFRHYGLAVDIYTHFTSPIRRYCDVVAHRQLAGAIGYEPLSLTHRDKNKMDMICRNINRKHRNAQFAGRASIEYYVGQVMRNNESTETGYVIKVFNNGIVVLVPKFGVEGLIRLDNLTEDPNSAAFDEVEYKLTFVPTNSDKPRDVYVFDKVEVQVRSVMDPITSKRKAELLLK"}, "B4": {"name": "recombinant His-tagged Nrd1 (protein, UniProt P53617 1-575)", "chain": "MQQDDDFQNFVATLESFKDLKSGISGSRIKKLTTYALDHIDIESKIISLIIDYSRLCPDSHKLGSLYIIDSIGRAYLDETRSNSNSSSNKPGTCAHAINTLGEVIQELLSDAIAKSNQDHKEKIRMLLDIWDRSGLFQKSYLNAIRSKCFAMDISNNTANTASQQLSLDPKQRSKQILSNLKKSPPLNLNISLPTDLTSTDPAKQQAALFQVIAALQKHFKTLPSHTSVGTVAPPQAHTITEYGSRRERERERERYNSRRNRSRSPPAPFSQPSTGRKDRYPSVAQDQYSIGAPNTTFGTNNHHLYPDELNVSNNPHYRPKPVSYDSTLPPDHIKVYSRTLFIGGVPLNMKEWDLANVLKPFAEVQSVILNNSRKHAFVKVYSRHEAENVLQNFNKDGALPLRTRWGVGFGPRDCCDYQHGYSIIPMHRLTDADKKWSVSAQWGGTSGQPLVTGIVFEEPDIIVGEGVSSKAISQKMPTDSGRNGPRSGKPNKSGSISSISPVPYGNAPLASPPPQQYVQPMMQQPYGYAPNQPLPSQGPAAAAPPVPQQQFDPTAQLNSLMNMLNQQQQQQQQS"}, "B5": {"name": "recombinant CID-His6 (domain or fragment, UniProt P53617 1-153)", "chain": "MQQDDDFQNFVATLESFKDLKSGISGSRIKKLTTYALDHIDIESKIISLIIDYSRLCPDSHKLGSLYIIDSIGRAYLDETRSNSNSSSNKPGTCAHAINTLGEVIQELLSDAIAKSNQDHKEKIRMLLDIWDRSGLFQKSYLNAIRSKCFAMD"}, "B6": {"name": "Trf4p lacking the NIM (trf4ΔNIM) (domain or fragment, UniProt P53632 1-573)", "chain": "MGAKSVTASSSKKIKNRHNGKVKKSKKIKKVRKPQKSISLNDENEVEILPSRNEQETNKLPKDHVTADGILVLEHKSDDDEGFDVYDGHFDNPTDIPSTTEESKTPSLAVHGDEKDLANNDDFISLSASSEDEQAEQEEEREKQELEIKKEKQKEILNTDYPWILNHDHSKQKEISDWLTFEIKDFVAYISPSREEIEIRNQTISTIREAVKQLWPDADLHVFGSYSTDLYLPGSDIDCVVTSELGGKESRNNLYSLASHLKKKNLATEVEVVAKARVPIIKFVEPHSGIHIDVSFERTNGIEAAKLIREWLDDTPGLRELVLIVKQFLHARRLNNVHTGGLGGFSIICLVFSFLHMHPRIITNEIDPKDNLGVLLIEFFELYGKNFGYDDVALGSSDGYPVYFPKSTWSAIQPIKNPFSLAIQDPGDESNNISRGSFNIRDIKKAFAGAFDLLTNRCFELHSATFKDRLGKSILGNVIKYRGKARDFKDERGLVLNKAIIENENYHKKRSRIIHDEDFAEDTVTSTATATTTDDDYEITNPPAKKAKIEEKPESEPAKRNSGETYITVSSED"}, "B7": {"name": "rCID-S25D-His6 (domain or fragment, UniProt P53617 1-153)", "chain": "B5 chain with S25D"}, "B8": {"name": "CID-R28D-His6 (domain or fragment, UniProt P53617 1-153)", "chain": "B5 chain with R28D"}}, "key": {"[1]": {"biological_target": "T1, recombinant Trf4-FLAG (S. cerevisiae), P53632", "T1 chain": "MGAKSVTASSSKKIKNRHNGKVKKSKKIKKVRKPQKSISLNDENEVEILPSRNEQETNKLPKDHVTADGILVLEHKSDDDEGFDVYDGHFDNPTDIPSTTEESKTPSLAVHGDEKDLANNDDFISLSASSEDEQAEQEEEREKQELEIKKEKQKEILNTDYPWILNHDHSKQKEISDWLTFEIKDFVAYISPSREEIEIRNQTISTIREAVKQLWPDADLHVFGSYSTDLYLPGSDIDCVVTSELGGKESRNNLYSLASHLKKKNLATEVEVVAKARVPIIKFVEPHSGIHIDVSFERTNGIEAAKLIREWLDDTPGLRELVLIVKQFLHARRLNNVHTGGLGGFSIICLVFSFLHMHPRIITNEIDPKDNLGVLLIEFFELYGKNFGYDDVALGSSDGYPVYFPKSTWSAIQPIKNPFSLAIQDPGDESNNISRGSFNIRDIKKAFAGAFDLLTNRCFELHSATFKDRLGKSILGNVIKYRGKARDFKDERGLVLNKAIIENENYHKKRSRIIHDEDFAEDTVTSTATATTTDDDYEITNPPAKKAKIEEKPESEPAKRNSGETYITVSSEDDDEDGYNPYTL", "assay": "pull-down; recombinant Trf4-FLAG as bait, E. coli extracts expressing the recombinant partners, in the presence of RNase; immunoblot with anti-His or anti-FLAG", "conditions": "remark: other sources report otherwise"}, "[2]": {"biological_target": "T2, Nrd1p-TAP (S. cerevisiae) (UniProt P53617)", "T2 sequence": "B4 chain", "assay": "co-IP; Nrd1p-TAP or Nrd1ΔCIDp-TAP immunopurified from yeast extracts treated with RNase; eluted by TEV cleavage; western blot"}, "[3]": {"biological_target": "T3, recombinant Trf4-FLAG (S. cerevisiae) (UniProt P53632)", "T3 sequence": "T1 chain", "assay": "pull-down; recombinant Trf4-FLAG as bait, E. coli extracts expressing the recombinant partners, in the presence of RNase; immunoblot with anti-His or anti-FLAG"}}, "note": "Residue numbers refer to the chain shown, from its start. Numbers in names are those of the source. Results are given in words; binding and its absence hold for the method and conditions named. In cells and extracts the contact can be indirect. Some results given as binding are weak or reduced against the parent protein; the word gives no strength. For some assays here: Sequences can lack the tags named with a protein.", "data": [{"binder": "B1", "values": [{"measurement": "binding", "setting": "[1]", "value": "binds"}]}, {"binder": "B2", "values": [{"measurement": "binding", "setting": "[2]", "value": "binds"}]}, {"binder": "B3", "values": [{"measurement": "binding", "setting": "[2]", "value": "binds weakly"}]}, {"binder": "B4", "values": [{"measurement": "binding", "setting": "[3]", "value": "binds"}]}, {"binder": "B5", "values": [{"measurement": "binding", "setting": "[3]", "value": "binds"}]}, {"binder": "B6", "values": [{"measurement": "binding", "setting": "[2]", "value": "no binding"}]}, {"binder": "B7", "values": [{"measurement": "binding", "setting": "[3]", "value": "no binding"}]}, {"binder": "B8", "values": [{"measurement": "binding", "setting": "[3]", "value": "no binding"}]}]}
